From PubChem BioAssay AID1434 (Sanford-Burnham Center for Chemical Genomics, 2008)
Values joined by “and” are separate entries in the source; they are usually repeats but may differ in a detail not shown here. Equal entries are not always repeated. Some of the results follow. The main result of the screen is listed elsewhere. These columns were measured beside it and carry no call. Compounds called inactive in the main read-out are mostly missing here.

Molecular target: Runt-related transcription factor 1 (Homo sapiens) + Core-binding factor subunit beta (Homo sapiens) (UniProt Q01196+Q13951)
Chain of UniProt Q01196 (Q01196 whole entry, looked up, the tested form may be a part): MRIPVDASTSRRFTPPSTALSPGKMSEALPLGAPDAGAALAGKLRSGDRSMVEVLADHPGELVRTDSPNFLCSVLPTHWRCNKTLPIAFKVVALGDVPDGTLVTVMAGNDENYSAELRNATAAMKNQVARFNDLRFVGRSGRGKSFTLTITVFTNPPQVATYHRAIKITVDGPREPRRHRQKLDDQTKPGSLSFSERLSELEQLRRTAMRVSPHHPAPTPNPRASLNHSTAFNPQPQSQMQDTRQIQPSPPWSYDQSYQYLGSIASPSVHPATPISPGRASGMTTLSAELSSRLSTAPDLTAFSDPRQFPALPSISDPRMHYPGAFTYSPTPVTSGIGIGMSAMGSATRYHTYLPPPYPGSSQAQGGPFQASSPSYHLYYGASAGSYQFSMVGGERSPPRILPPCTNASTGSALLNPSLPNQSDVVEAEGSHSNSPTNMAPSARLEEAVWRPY
Chain of UniProt Q01196 (Q13951 whole entry, looked up, the tested form may be a part): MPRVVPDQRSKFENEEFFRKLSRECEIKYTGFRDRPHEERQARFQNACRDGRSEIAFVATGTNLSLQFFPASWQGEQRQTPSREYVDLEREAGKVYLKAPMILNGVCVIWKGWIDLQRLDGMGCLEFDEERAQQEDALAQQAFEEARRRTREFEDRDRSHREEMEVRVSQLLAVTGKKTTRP
Assay: disruptors of Runt domain/CBFb-SMMHC interaction – biochemical, FRET, Cerulean-Runt, Venus-CBFb-SMMHC, uHTS, primary screen (AID 1434);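 also: 0% = DMSO wells and 100% = wells with excess untagged CBFb-SMMHC; inhibitors lower the FRET ratio by blocking Runt binding to CBFb-SMMHC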
Conditions: Cerulean-Runt/Venus-CBFb-SMMHC FRET ratio 530/480, 1 h; retest duplicate average; at 20 µM; stronger effect = higher value

Compound	inhibition
CN1CCN(Cc2c(O)ccc3cc(-c4ccccn4)c(=O)oc23)CC1	70.6%
Cc1ccc2nc(N3CCN(C(=O)c4cccs4)CC3)c(C#N)cc2c1	126%
CC(=O)c1c(N2CCN(C)CC2)nc(=S)n(Cc2ccccc2)c1C	90.3%
COc1cc2ccccc2nn1	70.6%
Nc1cccc2c1C(=O)N(CC(=O)NC13CC4CC(CC(C4)C1)C3)C2=O	70.6%
CN1c2ccsc2C(O)=C(C(=S)Nc2ccccc2)S1(=O)=O	97.7%
Cc1cccn2c(=O)c(/C=C(\C#N)C(=O)NCc3ccco3)c(N3CCCCC3)nc12	71.5%
CCCCn1c(NC(C)=O)c(C#N)c2nc3ccccc3nc21	109%
Cc1ccc(C2=NN=C(NC(=O)CSc3nncn3C)SC2)cc1	61%
CCCCCCc1cc2cc(C(=O)Nc3ccccc3)c(=O)oc2cc1O	147%
COC(=O)C1=CN(CC2CCCO2)C=C(C(=O)OC)C1c1ccsc1 (stereo not given)	153%
N=c1oc2ccc3ccccc3c2cc1-c1nnc2n1CCCCC2	122%
COC(=O)C1=C(CSc2nc3c(cc2C#N)CN(C)CC3)OC(N)=C(C#N)C1c1ccccc1F (stereo not given)	69.8%
CN1CC=C2C(C#N)=C(N)C(C#N)(C#N)C(Cc3ccccc3)C2C1 (stereo not given)	71.7%
CNc1nc(-c2cccs2)cc(C(F)(F)F)c1C#N	70.6%
CN1CCc2c(sc3c2c(NCc2ccco2)nc2nnnn23)C1	76.3%
Cn1ccnc1Sc1nc2ccccc2nc1NS(=O)(=O)c1ccccc1	89.3%
COC(=O)C1=CN(Cc2cccs2)C=C(C(=O)OC)C1c1cccc(Cl)c1	85.9%
CC1CCCN(Cc2c(O)ccc3c4c(c(=O)oc23)CCCC4)C1 (stereo not given)	92.6%
CCNC(=O)/C(C#N)=C/c1c(N2CC(C)OC(C)C2)nc2ccccn2c1=O (stereo not given)	92%
Cc1ccc2nc3c(cc(S(=O)(=O)c4ccccc4)c(=N)n3Cc3ccco3)c(=O)n2c1	70.6%
CN1CCc2cccc3c2[C@@H]1Cc1ccc(O)c(O)c1-3	85.5%
C=CCn1c(=N)c(C(=O)NCCCOC)cc2c(=O)n3ccccc3nc21	72.9%
CCOC(=O)/C(C#N)=C1/C=C(C)NC(c2ccccc2O)=N1	60.9%
CN1CCCN(C(=O)Cc2c(Cl)cccc2Cl)c2nc3ccccc3nc21	68.7%
CC1C2(C)OC(=N)C(C#N)(C(C)O2)C1(C#N)C#N (stereo not given)	150%
COc1cc(NS(=O)(=O)c2ccc(N/C=C\C(=O)c3ccc(F)cc3)cc2)nc(OC)n1	75.3%
Cc1c(Br)c(=O)oc2c(Br)c(O)ccc12	70.6%
COc1ccccc1NC(=O)c1cc2ccccc2o/c1=N\O	70.8%
O=C(O)Cn1c(O)c(C=Nc2ccccc2)sc1=S	58.4% and 78.2%
